The text below walks through data of ChEMBL document CHEMBL4888484, “Replenishing the malaria drug discovery pipeline: Screening and hit evaluation of the MMV Hit Generation Library 1 (HGL1) against asexual blood stage Plasmodium falciparum ,using a nano luciferase reporter read-out” (2022).

Molecules are shown by their SMILES. About 540 (0.36%) of roughly 150,000 compounds showed an effect of 50% or more. The list shows a part of the results.

In the test the test system is Plasmodium falciparum. Briefly: Primary screen in NF54 nanoGlo assay, in single point, at 2uM, 72h; a lower Z score goes with more inhibition. Type of test: functional, Erythrocyte. To be noted: timepoint 72 hour.
Broadly, the % Inhibition is the change of the read-out against control, counted positive when it falls. For `CCOc1ccc(CNC(=O)c2ccc(Oc3ncc(-c4ccc(C)cc4)cn3)cc2)cc1OCC`, the “% Inhibition” value is -10% and the Z score was 1.81.
`COC(=O)c1ccc(CN2CC3(C)CC2CC(C)(C)C3)cc1` (stereo unspecified): the “% Inhibition” value is recorded as -6% and the Z score is listed as 0.89.
For `CC(C)Nc1ncc(CN(C)Cc2ncon2)cn1` the same measures were -15% and 2.32.
Take `Cc1cc(C)c(N2CC[C@H](NC(=O)c3ccoc3)C2=O)c(C)c1`: the “% Inhibition” value is on record as -12% and the Z score is listed as 1.09.
For `CC(C)Cc1ccc(-c2n[nH]c(C(=O)N(C)C)n2)cc1` the same measures were -13% and 2.28.
Regarding `Cc1cccnc1CNS(=O)(=O)c1cccc(C(=O)N[C@H]2CCOC2)c1`, the “% Inhibition” value is -2% and the Z score is 0.28.
The matching figures for `Cc1nc(CNCC(C)(C)c2ccc3ccccc3c2)[nH]c1C`: -3% and 0.33.
`Cc1ccc(-c2nnc(-c3cccnc3N3CCOCC3)o2)cc1`: the “% Inhibition” value is on record as -16% and the Z score turned out to be 1.55.
In the case of `O=C(Nc1cccc(C(F)(F)F)c1)c1cccnc1-c1cccs1`, the “% Inhibition” value came to 0% and the Z score is reported as -0.05.
`CC(C)c1cncnc1N1CCC2(CCC(=O)N(Cc3cccnc3)C2)CC1`: the “% Inhibition” value is on record as -6% and the Z score is given as 0.55.
With `Oc1cc(OCc2ccc(Cl)c(Cl)c2)ccc1-c1[nH]ncc1Oc1ccccc1Br`, the “% Inhibition” value is listed as -6% and the Z score was 0.54.
Take `CC(O)CC(C)CNC(C)c1ccc(Cl)cc1` (stereo unspecified): the “% Inhibition” value is recorded as 7% and the Z score is reported as -1.04.
The matching figures for `CC(=O)NC1CN(CC2C(C)=CCCC2C)C1` (stereo unspecified): -13% and 1.97.
The matching figures for `Cc1cnccc1CNC(=O)NC1CCCC(C)CC1` (stereo unspecified): 0% and -0.02.
Turning to `CCN1CCN(C[C@@H]2CN(c3ncnc4ccsc34)C[C@@H]2CO)CC1`, the “% Inhibition” value is listed as 2% and the Z score is on record as -0.35.
For the molecule `NS(=O)(=O)N1CC[C@H](Oc2ccc(C(F)(F)F)cn2)C1`, the “% Inhibition” value is -8% and the Z score is 1.11.
The matching figures for `O=C1CN(C(=O)c2cccc3c2OCO3)c2ncccc2N1`: 4% and -0.83.
Turning to `COCCOc1ccc(CN[C@@H](C(=O)OC(C)(C)C)c2ccccc2)cc1`, the “% Inhibition” value is given as -11% and the Z score came to 1.4.
For `O=C(NC1(c2csc(N3CCOCC3)n2)CCCC1)C(F)(F)F` the same measures were -11% and 0.94.
For `CCOc1ccc(CNC(=O)c2ccc(Oc3ccnc(-c4cccc(F)c4)n3)cc2)cc1OCC`, the “% Inhibition” value worked out at 2% and the Z score was -0.34.
As to `CO[C@H]1CC[C@@]2(OC)CCN(C(=O)c3ccc(-c4ccccc4)cc3)[C@H]2C1`, the “% Inhibition” value is recorded as -10% and the Z score was determined as 1.76.
Turning to `O=C(COc1ccc2ccccc2c1)Nc1ccc(-n2cnnn2)cc1`, the “% Inhibition” value is reported as -7% and the Z score stood at 0.85.
For `COc1cc(-c2nc(-c3ccc(-c4ccccc4)cc3)c(-c3ccccc3)[nH]2)ccc1OCc1ccccc1`, the “% Inhibition” value came to 12% and the Z score is listed as -1.95.
As to `CC[C@]1(C)NC(=O)N(CCCNc2ccncc2Cl)C1=O`, the “% Inhibition” value is on record as 1% and the Z score was -0.17.
`CCCNCc1cc(OCC)c(OCC#N)cc1Br`: the “% Inhibition” value is reported as -4% and the Z score was determined as 0.53.
Regarding `O=C(Nc1ccc2c(c1)OCO2)C1CCN(C(=O)c2cc(Cl)c3c(c2)OCCCO3)CC1`, the “% Inhibition” value is given as -38% and the Z score was 4.46.
As to `CCn1nnc2ccc(-c3noc(-c4ccc(C)cc4)n3)cc21`, the “% Inhibition” value is -19% and the Z score amounted to 3.27.
As to `CCn1nc(C)cc1C(=O)N[C@H](c1ccncc1)C1CC1`, the “% Inhibition” value was 2% and the Z score was -0.34.
As to `CC(CNC(=O)C1CCNC(=O)C1)c1cccc(C(F)(F)F)c1` (stereo unspecified), the “% Inhibition” value was -15% and the Z score is 2.17.
Turning to `Cc1ccc(NC(=O)Nc2ccc(F)c(-c3nnc(-c4ccccc4)o3)c2)cc1`, the “% Inhibition” value is on record as 14% and the Z score is -1.93.
The matching figures for `CNC(=O)[C@@H]1C[C@@H](n2cc(C(C)(C)NC(=O)c3cc(F)ccc3C)nn2)CN1`: -7% and 0.9.
The matching figures for `CCc1ccc(C(C)NC(=O)C(C)N2CCC(OCCN3CCCC3)CC2)cc1` (stereo unspecified): 12% and -1.48.
For `O=C(c1cccc2c1CCC2)N(CCO)CCN1CCOCC1`, the “% Inhibition” value is -19% and the Z score worked out at 2.05.
As for `N#Cc1c(N)nc2c(c1-c1ccccc1OC(F)F)CNCC2`, the “% Inhibition” value was -9% and the Z score is recorded as 1.56.
For `O=C1C[C@H](c2ccc(OCc3ccc(F)cc3)cc2)c2sccc2N1` the same measures were -11% and 1.36.
For `Cc1ccc(S(=O)(=O)NCc2nc(-c3cccc(C#N)c3)c[nH]2)c(C)c1` the same measures were -2% and 0.31.
For the molecule `Cc1cnc(CN2C[C@H]3CCC[C@@H](C2)N(C)C3=O)cn1`, the “% Inhibition” value is listed as -6% and the Z score was found to be 0.82.
For `COC(=O)c1ccccc1N(C)S(=O)(=O)c1ccc2c(c1)CCCC2` the same measures were 2% and -0.27.
Regarding `CC[C@H](C)n1cc(C(=O)NCc2ccco2)c(=O)c(C(=O)N2CCc3ccccc3C2)c1`, the “% Inhibition” value worked out at 5% and the Z score is on record as -0.95.
As for `COc1ncc(-c2nc(-c3cccc(F)c3)no2)c(C)n1`, the “% Inhibition” value was -15% and the Z score amounted to 1.68.
For the molecule `O=C(Nc1n[nH]c(CCc2c[nH]c3ccccc23)n1)c1cccs1`, the “% Inhibition” value is listed as -9% and the Z score stood at 1.67.
Consider `O=C(c1ncc[nH]1)N1CC[C@H]2[C@H](CCC(=O)N2CCc2ccccc2)C1`, for which the “% Inhibition” value is -5% and the Z score came to 0.5.
As for `Cc1ccc(S(=O)(=O)N2CCC[C@H](CCC(=O)N3CCN(C)CC3)C2)cc1`, the “% Inhibition” value is listed as -11% and the Z score worked out at 1.59.
`NC(=O)COc1ccc(S(=O)(=O)N2C3CCC2CC(n2cccn2)C3)cc1` (stereo unspecified): the “% Inhibition” value was -18% and the Z score amounted to 2.34.
For `CCN(CC)S(=O)(=O)c1ccc(C(N)=O)cc1` the same measures were -8% and 1.09.
For `O=S1(=O)CCN(CCNc2nc(C3CCCCC3)ns2)CC1` the same measures were 30% and -3.35.
For `COc1cc(-n2cnnn2)c(Cl)cc1C(=O)N1CC[C@H](NC(C)=O)C1` the same measures were 3% and -0.37.
With `Cc1cc(CNC(=O)C(C)(C)C)ccc1F`, the “% Inhibition” value is reported as -5% and the Z score came to 0.66.
For `O=c1c2cc3c(nc2ncn1Cc1ccc(F)cc1)CCCC3`, the “% Inhibition” value is on record as -10% and the Z score came to 1.25.
Take `CN(Cc1ccccc1)Cc1cn([C@H]2CO[C@H]3[C@@H]2OC[C@@H]3NC(=O)Nc2ccc(Oc3ccccc3)cc2)nn1`: the “% Inhibition” value was determined as 14% and the Z score is reported as -1.64.
Take `CC1(C)CNC(=O)CN1C(=O)[C@H]1C[C@@H]1c1ccc(Cl)cc1`: the “% Inhibition” value is listed as 6% and the Z score is reported as -1.37.
On to `FC(F)(F)CCN(Cc1cnc2cnccn12)C1CCC1`, for which the “% Inhibition” value was -11% and the Z score came out at 1.5.
As to `O=C(NCCCN1CCCC1=O)Nc1ccn(-c2nccs2)n1`, the “% Inhibition” value was -2% and the Z score came to 0.23.
